The campaign covered roughly 390,000 compounds. About 4,700 (1.2%) were called active. The inconclusive results got no clear call from the source; some entries with a clear call stand among them for comparison. Calls follow the shape of the dose curve; as a rule, active = well fitted inhibition curve with a large enough effect; inconclusive = small, poorly fitted or top-dose-only effect, or another doubt; inactive = no such curve, though single readings can be large or run the other way. Potencies of inconclusive entries are doubtful fits and often do not repeat.
These compounds were tested against DNA polymerase eta (Homo sapiens) (UniProt Q9Y253) (assay: qHTS for Inhibitors of Polymerase Eta). Conditions: recombinant Pol eta, fluorescent DNA replication assay; series mostly up to 114 µM; activity change, negative = inhibition: at the top concentration.
Method in brief: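 Pol eta (10 nM) was preincubated with compounds for 15 min at room temperature, after which fluorescent replication substrate (50 nM final) was added to start the reaction. Fluorescence was read kinetically at 0 and 10 min.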
% is scaled to controls: 0 for no effect and ±100 for the full control effect; potency is read from the fitted curve at half-maximal effect; tags tell the direction and shape of the fitted curve.

Chain of UniProt Q9Y253 (Q9Y253 whole entry, looked up): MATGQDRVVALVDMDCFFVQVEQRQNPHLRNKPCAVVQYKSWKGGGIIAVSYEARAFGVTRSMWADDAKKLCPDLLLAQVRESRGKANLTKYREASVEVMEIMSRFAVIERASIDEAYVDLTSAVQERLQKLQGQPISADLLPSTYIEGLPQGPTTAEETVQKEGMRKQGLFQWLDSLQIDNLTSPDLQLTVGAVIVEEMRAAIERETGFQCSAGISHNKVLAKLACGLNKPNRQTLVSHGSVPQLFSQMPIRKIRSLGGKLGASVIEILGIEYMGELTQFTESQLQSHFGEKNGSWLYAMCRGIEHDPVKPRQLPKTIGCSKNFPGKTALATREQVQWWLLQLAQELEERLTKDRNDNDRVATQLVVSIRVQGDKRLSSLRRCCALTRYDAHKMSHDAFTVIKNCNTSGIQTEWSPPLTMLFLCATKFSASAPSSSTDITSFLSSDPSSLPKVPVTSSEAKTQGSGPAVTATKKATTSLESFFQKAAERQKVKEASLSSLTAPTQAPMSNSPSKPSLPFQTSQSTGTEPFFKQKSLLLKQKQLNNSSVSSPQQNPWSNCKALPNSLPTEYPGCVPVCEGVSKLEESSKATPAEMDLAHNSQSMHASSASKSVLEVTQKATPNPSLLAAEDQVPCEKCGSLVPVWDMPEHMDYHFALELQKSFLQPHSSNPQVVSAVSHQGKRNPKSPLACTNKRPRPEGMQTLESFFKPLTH

SMILES	Potency	activity change, negative = inhibition
Cc1ccccc1OCC(=O)NCC(=O)N/N=C/c1ccc(Br)o1	active: 25.1 µM	–
O=C(N/C(=C\c1ccc(Br)cc1)C(=O)N1CCCC1)c1ccccc1F	–	inactive: -7.83%
O=C(CNC(=O)/C=C/c1ccco1)N=Nc1c(O)[nH]c2ccccc12	–	inactive: -11.2%
CC(Oc1ccc2oc3ccccc3c2c1)C(=O)NC12CC3CC(CC(C3)C1)C2 (stereo not given)	inconclusive: 50.1 µM [inhibitor, partial curve, poor fit]	–
Cc1ccc(C2C=C(c3ccccc3)Nc3nc(NS(=O)(=O)c4ccccc4)nn32)cc1 (stereo not given)	inconclusive: 39.8 µM [inhibitor, single point]	–
COc1cccc(C(=O)Nc2ccccc2C(=O)OCc2cc(=O)n3c4c(sc3n2)CCCC4)c1	inconclusive: 70.8 µM [inhibitor, partial curve]	–
CC(=O)Nc1ccc(Nc2cc(C)nc3c(-c4ccccc4)cnn23)cc1	inconclusive: 10 µM [inhibitor, partial curve, poor fit]	–
N=C1SC(c2ccccc2)C(=O)N1c1ncc(Cc2ccccc2Cl)s1 (stereo not given)	inconclusive: 35.5 µM [inhibitor, single point]	–
c1ccc(-c2ccc(C3=Nn4c(Cn5nnc6ccccc65)nnc4SC3)cc2)cc1	inconclusive: 17.8 µM [inhibitor, partial curve, poor fit]	–
CCOC(=O)c1cc2c(=Cc3ccc(N(C)C)cc3)c3ccccc3n2[n+]1C	inconclusive: 22.4 µM [inhibitor, partial curve, poor fit]	–
O=C(CCNS(=O)(=O)c1cccs1)NCc1ccco1	inconclusive: 100 µM [inhibitor, partial curve, poor fit]	–
CCOc1ccc(CNC(=O)C2CCN(C(=O)c3ccc(-n4ccc5ccccc54)s3)CC2)cc1	–	inactive: -3.54%
COc1ccc(/C=C2\SC(=S)N(CCCC(=O)Nc3ccc(C(=O)O)cc3)C2=O)cc1OC	inconclusive: 39.8 µM [inhibitor, full curve]	–
O=C(Cn1cc(/C=N/NC(=O)c2cccc(C(F)(F)F)c2)c2ccccc21)Nc1ccc(F)cc1	inconclusive: 89.1 µM [inhibitor, partial curve, poor fit]	–
Cc1cc(NC(=O)C(C)Sc2nc(-c3cccs3)nc3ccccc23)no1 (stereo not given)	inconclusive: 31.6 µM [inhibitor, partial curve, poor fit]	–
Cc1ccccc1CCNC(=O)c1ccc(Cn2c(=O)c3cccn3c3cccnc32)cc1	active: 89.1 µM	–
O=C(c1ccco1)N1CCN(S(=O)(=O)c2ccc3[nH]c(=O)oc3c2)CC1	inconclusive: 25.1 µM [inhibitor, single point]	–
CCCCC[C@H]1CN(Cc2ccccc2)C(=O)[C@@H]1CC(=O)NCc1ccc(OC)cc1	inconclusive: 79.4 µM [inhibitor, partial curve, poor fit]	–
Oc1ccccc1-c1cc(-c2ccco2)[nH]n1	–	inactive: -5.61%
CC(C)[C@@H](C(=O)NC1CCN(Cc2ccccc2)CC1)N1C(=O)N2CCc3c([nH]c4ccccc34)[C@@]2(C)C1=O	inconclusive: 89.1 µM [inhibitor, partial curve, poor fit]	–

SMILES	Potency	activity change, negative = inhibition
NS(=O)(=O)c1ccc(O)c(NC(=O)c2ccc([N+](=O)[O-])o2)c1	inconclusive: 63.1 µM [inhibitor, partial curve, poor fit]	–
COc1cccc(/C=N/Nc2snc(SC)c2C#N)c1O	inconclusive: 22.4 µM [inhibitor, full curve, poor fit]	–
CC(C)(C)c1ccc(/C=C(\c2nc3ccccc3[nH]2)S(=O)(=O)c2ccccc2)cc1	inconclusive: 79.4 µM [inhibitor, partial curve, poor fit]	–
CCC(=O)OC1=C(C(C)=O)N(Cc2ccccc2)S(=O)(=O)c2ccccc21	–	inactive: -14.5%
COc1ccccc1-c1nnc(NC(=O)c2ccc3ncsc3c2)o1	inconclusive: 39.8 µM [inhibitor, partial curve, poor fit]	–
CC1(OC(=O)c2ccco2)C(=O)C=C2C=C(C3CC3)OC=C2C1=O (stereo not given)	active: 44.7 µM	–
CCOc1ccccc1NC(=O)Nc1nnc(N2CCCC(C)C2)s1 (stereo not given)	–	inactive: -14.1%
CN(C(=O)CSc1nc(-c2ccccc2)no1)c1ccc(F)cc1	–	inactive: -10.8%
Cc1ccc2nc(-c3ccc(N4C(=NC(=O)CCC(=O)O)SC5CS(=O)(=O)CC54)cc3)sc2c1 (stereo not given)	active: 3.55 µM	–
COc1cc(C2C3=C(CC(c4ccco4)CC3=O)Nc3ccccc3N2C(C)=O)cc(OC)c1OC (stereo not given)	inconclusive: 31.6 µM [inhibitor, partial curve, poor fit]	–
Cc1ccc(Cl)cc1N1CCN(S(=O)(=O)c2cn(C)c(C)n2)CC1	–	inactive: -3.85%
CCOc1ccc(NC(=O)Cn2c(=O)oc3cc(Cl)ccc32)cc1	inconclusive: 35.5 µM [inhibitor, single point]	–
O=S(=O)(c1cccs1)N1CCC(CO)(Cc2cccc(F)c2)CC1	inconclusive: 79.4 µM [inhibitor, partial curve, poor fit]	–
Cc1ccc(Cl)cc1NC(=O)c1ccccc1OCC(=O)Nc1ccc(Cl)cc1	inconclusive: 17.8 µM [inhibitor, full curve]	–
Cc1cccn2c(=O)c(C=C(C#N)C#N)c(N3CCN(c4cccc(Cl)c4)CC3)nc12	inconclusive: 79.4 µM [inhibitor, partial curve, poor fit]	–
Cc1ccc2nc(NC(=O)COC(=O)c3ccc(Br)o3)sc2c1	inconclusive: 11.2 µM [inhibitor, partial curve]	–
Cc1c(NC(=O)C(C)OC(=O)c2ccc([N+](=O)[O-])s2)c(=O)n(-c2ccccc2)n1C (stereo not given)	active: 50.1 µM	–
COc1cccc(OCc2cc(/C=N/Nc3ccc(C(=O)O)cc3)ccc2OC)c1	active: 50.1 µM	–
Cc1ccc2c(cnn2C(=O)CCC(=O)NC2CCCCC2)c1	inconclusive: 25.1 µM [inhibitor, partial curve, poor fit]	–
CN1CCN(c2nc(-c3ccc(Br)cc3)nnc2-c2ccccc2)CC1	inconclusive: 25.1 µM [inhibitor, partial curve, poor fit]	–
